# In the supplement of paper PMC12217912:
# The list shows a part of the results. The full chains were built here from the parent and the listed change. Inactive controls read about 0.05.
# B1: TEV protease; numbered along this chain (parent)
# chain: MGESLFKGPRDYNPISSSICHLTNESDGHTTSLYGIGFGPFIITNKHLFRRNNGTLVVQSLHGVFKVKDTTTLQQHLVDGRDMIIIRMPKDFPPFPQKLKFREPQREERICLVTTNFQTKSMSSMVSDTSCTFPSGDGIFWKHWIQTKDGQCGSPLVSTRDGFIVGIHSASNFTNTNNYFTSVPKNFMELLTNQEAQQWVSGWRLNADSVLWGGHKVFMVKPEEPFQPVKEATQL
# Variants of: B1
# Experiment: raw area under fraction-flipped curve 0-4 h after induction (AUC4h, not background-subtracted), DNA-recorder readout of cleavage of the substrate (dimensionless); higher = more cleavage of the substrate by the protease variant
# Settings: temperature: 34 °C; time window: 0-4 h after rhamnose induction
# Procedure: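 In vivo DNA recorder in E. coli TOP10(DE3) ΔrhaA at 34 °C. Each TEVp single-site mutant (parent TEVp 0) is paired with a single-site variant of the 7-mer TEVs (canonical ENLYFQ|S). The substrate sits between flexible linkers in a Bxb1-sfGFP-TEVs-SsrA fusion, so cleavage stabilises Bxb1 and speeds flipping of a recombination array, read by NGS. The value is the raw area under the fraction-flipped curve over 0-4 h after rhamnose induction (AUC4h), with ≥20 reads per time point. It is not background-subtracted; inactive controls average about 0.047.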
# 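Also: Bxb1 expression induced with 0.2% (w/v) L-rhamnose at OD600 near 0.5, cultures sampled hourly, flipped fraction per protease–substrate barcode pair counted by paired-end Illumina sequencing.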
Variant,area with substrate ENAYFQS,area with substrate ENCYFQS,area with substrate ENDYFQS,area with substrate ENEYFQS,area with substrate ENFYFQS,area with substrate ENHYFQS,area with substrate ENKYFQS,area with substrate ENNYFQS,area with substrate ENPYFQS,area with substrate ENRYFQS,area with substrate ENSYFQS,area with substrate ENTYFQS,area with substrate ENVYFQS,area with substrate ENYYFQS,area with substrate ENGYFQS,area with substrate ENIYFQS,area with substrate ENMYFQS,area with substrate ENQYFQS,area with substrate ENWYFQS
I164W,0.0517,0.0539,0.0536,0.0534,0.0321,0.0515,0.0496,0.0629,0.0819,0.06,0.0616,0.0421,0.0554,0.0513,,,,,
I164P,0.0435,0.0231,0.0543,0.0589,0.0484,0.0579,0.0369,0.0518,,0.0595,0.0482,0.0366,0.0557,,0.0534,0.047,0.0523,0.0568,0.0335
L156D,0.0581,0.0581,0.047,0.065,0.0518,0.0515,,,,0.0601,0.0467,0.0512,0.0531,,0.0678,0.0516,,0.0389,
L156V,0.0678,0.0464,0.0588,0.063,0.065,,0.0648,0.0542,0.0481,0.0522,0.0618,0.0557,0.0715,,0.0401,,0.0742,0.0618,
L156M,0.0764,,0.0556,0.0538,0.0763,0.0521,,0.0641,0.0672,0.066,0.0701,0.0541,0.0731,0.0454,,0.142,0.0803,0.0631,0.057
K142M,0.0572,0.0662,0.0684,,0.0628,0.0516,0.0705,,0.062,0.0641,0.075,,0.0712,0.0908,,0.125,,0.0576,
K142H,0.0524,0.0772,0.0625,0.0474,,0.0651,0.0647,0.0649,,0.0442,0.0658,0.0633,0.0857,,,0.116,0.0681,0.0635,0.0581
T181Y,0.0501,0.0536,0.0763,,0.0555,0.0524,0.064,0.0566,0.0688,0.0715,,,0.0529,,0.0466,0.0644,,0.06,
T181A,0.0443,,0.0565,0.0733,,,,0.116,0.0745,0.0607,,,0.104,,0.087,,,0.0759,0.0813
D149N,0.0664,0.0616,0.0264,0.0495,0.0533,,0.0407,0.0605,,0.0718,0.0482,0.0588,0.0737,0.0539,,0.0968,0.0657,0.073,0.0538
D149K,0.0757,0.0653,0.0617,0.0509,,0.0606,,0.0634,0.0589,0.0656,,0.0421,0.0685,0.0553,0.0746,0.0604,,0.0622,0.0507
G136M,0.0563,,0.0937,0.0534,0.0565,0.0704,,0.0667,,0.0722,0.0542,0.0566,0.0968,,0.0524,,,0.0597,
V165F,0.0649,0.171,0.0529,,,0.0557,0.0719,,,0.0481,,,,,0.0531,,,0.056,
